ChEMBL document CHEMBL4888484, “Replenishing the malaria drug discovery pipeline: Screening and hit evaluation of the MMV Hit Generation Library 1 (HGL1) against asexual blood stage Plasmodium falciparum ,using a nano luciferase reporter read-out” (2022)
Screen size: about 150,000 compounds; about 540 (0.36%) showed an effect of 50% or more. This is one part of the list.

These molecules were tested on Plasmodium falciparum (assay: Primary screen in NF54 nanoGlo assay, in single point, at 2uM, 72h; a lower Z score goes with more inhibition). Conditions: timepoint 72 hour.
Type: functional, Erythrocyte
With Cc1[nH]c2c(CN(C)CCc3cnn(C)c3)cccc2c1C the “% Inhibition” value was -11% and the Z score was 1.84.
In the case of CCOc1ncccc1CNC(=O)c1coc(NC(=O)Cc2c(C)noc2C)n1, the “% Inhibition” value is reported as 6% and the Z score is reported as -0.81.
In the case of O=C1CN(C(=O)[C@H](O)C2CCCCC2)CCCN1, the “% Inhibition” value is reported as -5% and the Z score is reported as 1.03.
In the case of NC(=O)CCn1cc(-c2cccc(-c3ccn[nH]3)c2)cn1, the “% Inhibition” value is reported as -12% and the Z score is reported as 1.19.
For COc1cc(C(=O)N[C@H]2COCC[C@@H]2OC)c(Cl)cc1OC(C)C, the “% Inhibition” value was 0% and the Z score was 0.05.
CS(=O)(=O)c1ccc(C(=O)NCC[C@H]2CCc3ccccc32)s1 was tested, and the “% Inhibition” value was -2% and the Z score was 0.35.
In the case of Cc1cc(C(=O)N2C3CCC2CC(N(C)C(=O)c2ccccc2)C3)cnn1 (stereo not drawn), the “% Inhibition” value is reported as -9% and the Z score is reported as 1.18.
With CN(C(=O)c1ccc(C(N)=O)cn1)C1CCCCCC1 the “% Inhibition” value was -2% and the Z score was 0.25.
With CCOC(=O)c1cc(-c2ccccc2)n(-c2cccc(C(=O)Nc3cccc(C)n3)c2)c1C the “% Inhibition” value was 13% and the Z score was -1.46.
With COc1cccc(CNC(=O)CC2CC(F)(F)C2)c1 the “% Inhibition” value was 7% and the Z score was -0.84.
c1ccc2oc(CN3CC[C@H]4CC[C@@H](C3)N4)cc2c1 was tested, and the “% Inhibition” value was -10% and the Z score was 1.1.
In the case of CCOc1ccc(NC(=O)C2[C@H]3C=C[C@@]4(O3)C(C(=O)NC3CCCCC3C)N(C(C)C)C(=O)[C@@H]24)cc1 (stereo partly drawn), the “% Inhibition” value is reported as 1% and the Z score is reported as -0.22.
For COc1ccc(C(=O)Nc2ccc(-c3nc(-c4cc(C)ccc4C)co3)cc2)cc1, the “% Inhibition” value was 0% and the Z score was -0.01.
With Cc1nc2ncnn2c(N2CCS(=O)(=O)C(C)(C)C2)c1C the “% Inhibition” value was -13% and the Z score was 1.5.
With COC(=O)[C@@H](C)CC(=O)NCCc1ccccc1 the “% Inhibition” value was -2% and the Z score was 0.24.
For O=S(=O)(NC1CCN2CCCCC12)c1ccccc1 (stereo not drawn), the “% Inhibition” value was -5% and the Z score was 0.95.
In the case of Cc1cc(N2CCCCS2(=O)=O)cc(C)c1S(=O)(=O)NC1CC1, the “% Inhibition” value is reported as -16% and the Z score is reported as 1.47.
For N#Cc1ccc(OCCN2CCCC[C@@H]2Cn2cncn2)cc1, the “% Inhibition” value was -9% and the Z score was 1.4.
For O=C(NCc1ccco1)c1cc(NCc2ccc3c(c2)OCO3)ccn1, the “% Inhibition” value was 1% and the Z score was -0.23.
With Cc1ccc(NCc2ccc(-c3cccc(F)c3C)o2)cc1N1C(=O)CCC1=O the “% Inhibition” value was 14% and the Z score was -1.42.
For CCOc1cccc(CNC(=O)[C@]2(CC)CCCCC(=O)N2)c1, the “% Inhibition” value was 9% and the Z score was -1.08.
For COCCn1ncc2c1[C@@H](NC(=O)c1cccc(CO)c1)CCC2, the “% Inhibition” value was -9% and the Z score was 1.51.
For O=C(Cn1ccc2ccccc21)N1CCN(CCO)[C@@H]2CS(=O)(=O)C[C@@H]21, the “% Inhibition” value was -10% and the Z score was 1.35.
In the case of CCn1c([C@H]2CCCNC2)nn(Cc2cccc(C(=O)OC)c2)c1=O, the “% Inhibition” value is reported as -9% and the Z score is reported as 1.2.
For Cc1cc(C(=O)NCCn2nc(C(F)(F)F)n(C)c2=O)no1, the “% Inhibition” value was -5% and the Z score was 0.61.
CN(C)C(=O)Cn1cc(C(=O)Nc2ccccc2Oc2cccc(F)c2)nn1 was tested, and the “% Inhibition” value was -11% and the Z score was 1.97.
In the case of O=C(c1ccncc1)N1CC(n2ccnn2)C1, the “% Inhibition” value is reported as -11% and the Z score is reported as 1.67.
Cc1cnc(C(=O)Nc2nc(-c3ccc4c(c3)OCO4)cs2)cn1 was tested, and the “% Inhibition” value was -17% and the Z score was 3.16.
For O=C(NCc1ccccc1)c1cn(C[C@@H]2CC(F)(F)CN2C(=O)Cc2ccncc2)nn1, the “% Inhibition” value was -3% and the Z score was 0.54.
In the case of CCN(CC)C(=O)c1ccc(Cl)c(NC(=O)NCC(F)(F)F)c1, the “% Inhibition” value is reported as -13% and the Z score is reported as 1.19.
With COC(=O)c1cc2n(n1)CCN(C(=O)[C@@H]1COCCO1)C2 the “% Inhibition” value was -18% and the Z score was 1.75.
For C[C@H]1[C@@H](O)CCCN1C(=O)Cc1cccc(C(F)(F)F)n1, the “% Inhibition” value was -4% and the Z score was 0.55.
C[C@H]1CN(c2cccc(C#N)n2)C[C@]1(O)C1CC1 was tested, and the “% Inhibition” value was 9% and the Z score was -1.76.
With Cc1cc(C(=O)N[C@H](c2ncc[nH]2)C(C)C)ns1 the “% Inhibition” value was 16% and the Z score was -1.87.
With Cc1ccc(C2CCCCCN2C(=O)c2cn(C3CCOC3)nn2)o1 (stereo not drawn) the “% Inhibition” value was 13% and the Z score was -1.7.
With COC(=O)Nc1nc(Cc2nc(-c3ccccn3)no2)cs1 the “% Inhibition” value was -14% and the Z score was 1.54.
In the case of COCc1nc(C)nc(N2CCN(C(=O)C(C)C)CC2)c1Cc1ccccc1F, the “% Inhibition” value is reported as 16% and the Z score is reported as -2.
For Cc1nn(-c2ccc3nnc(C)n3n2)c2c1[C@@H](c1cccc(OCC(C)C)c1)CC(=O)N2, the “% Inhibition” value was -13% and the Z score was 1.63.
CC(C)CN1CCn2nc(CNc3cc(C#N)ccn3)cc2C1 was tested, and the “% Inhibition” value was 0% and the Z score was -0.03.
In the case of Cc1noc(C)c1S(=O)(=O)NCc1ccc2c(c1)OCCO2, the “% Inhibition” value is reported as -3% and the Z score is reported as 0.45.
For COCCNC(=O)NCC1CCCOC1C(C)(C)C (stereo not drawn), the “% Inhibition” value was -5% and the Z score was 0.79.
Cc1ccc(S(=O)(=O)N2CCN(C(=O)NCCn3cncn3)CC2)cc1 was tested, and the “% Inhibition” value was -9% and the Z score was 1.13.
CC(C)N(CC(C)(C)O)C(=O)N[C@H](c1ccccn1)C1CCCC1 was tested, and the “% Inhibition” value was 1% and the Z score was -0.08.
With CC(C)n1cnnc1CCn1cnc2nccnc2c1=O the “% Inhibition” value was -13% and the Z score was 2.65.
For CN(C)S(=O)(=O)N1CCC[C@H](c2cc(-c3ccc(F)cc3)n[nH]2)C1, the “% Inhibition” value was 13% and the Z score was -1.69.
For Cc1csc(N(CC(F)(F)F)C(=O)CCc2cncc(F)c2)n1, the “% Inhibition” value was -14% and the Z score was 1.53.
With O=C(c1ccc(NS(=O)(=O)c2cccs2)cc1)N1CCN(c2ccccc2Cl)CC1 the “% Inhibition” value was -13% and the Z score was 1.7.
With O=S(=O)(CCC1CCOC1)N1CCCCC1c1ncc[nH]1 (stereo not drawn) the “% Inhibition” value was -3% and the Z score was 0.66.
COc1ccc(OC[C@H](CN(C)C2=NS(=O)(=O)c3ccccc32)OC(=O)c2ccc(C)cc2)cc1 was tested, and the “% Inhibition” value was -4% and the Z score was 0.58.
Cc1ccc(-c2cc(-c3nc(-c4cccnc4)no3)[nH]n2)c(C)c1 was tested, and the “% Inhibition” value was 11% and the Z score was -1.17.
COc1ccc2c(c1)N(C(=O)c1n[nH]c3c1CCC3)CCCC2 was tested, and the “% Inhibition” value was -12% and the Z score was 0.97.
In the case of CC1CN(CC2CCCO2)CCC1Nc1ccc2[nH]ncc2c1 (stereo not drawn), the “% Inhibition” value is reported as -7% and the Z score is reported as 0.99.
In the case of O=C1Nc2ccccc2[C@@]12Nc1ccccc1CO2, the “% Inhibition” value is reported as 36% and the Z score is reported as -5.24.
O=C(Nc1cccc2c1CCCC2)c1ccc2[nH]cnc2c1 was tested, and the “% Inhibition” value was -7% and the Z score was 1.08.
With Cc1nonc1CN1CC[C@H](C2CCCCC2)C1 the “% Inhibition” value was -3% and the Z score was 0.54.
In the case of COCC1(CNC(=O)C[C@H](N)c2ccccc2)CCC1, the “% Inhibition” value is reported as 8% and the Z score is reported as -1.08.
For CCOC(=O)c1nn(C)cc1CN(C)Cc1c(C)noc1C, the “% Inhibition” value was -7% and the Z score was 0.56.
In the case of CC(=O)N1CCCN(C(=O)C2CC2c2ccc3ccccc3c2)CC1 (stereo not drawn), the “% Inhibition” value is reported as -1% and the Z score is reported as 0.1.
In the case of O=C(Cc1nnc(-c2ccncc2)o1)Nc1ccccc1, the “% Inhibition” value is reported as -10% and the Z score is reported as 1.88.
In the case of O=C(N[C@H]1CCOC[C@@H]1Oc1cccc(F)c1)c1cnc2c(c1)CCC2, the “% Inhibition” value is reported as 2% and the Z score is reported as -0.27.
O=C(Nc1ccc(F)cc1F)N[C@H]1C[C@H]2C(=O)NC[C@@H](CCC(=O)N3CCC(O)CC3)N2C1 was tested, and the “% Inhibition” value was 3% and the Z score was -0.41.
Cc1cnc([C@H](C)NC(=O)N2CCC(CCc3ccc(F)cc3F)CC2)o1 was tested, and the “% Inhibition” value was -7% and the Z score was 1.48.
With COC[C@H]1[C@H](NC(=O)c2csc(C(C)C)n2)[C@H]2CCO[C@H]21 the “% Inhibition” value was -18% and the Z score was 2.79.
With Cc1ccc(N2CCN(c3nc4c(c(N5CCOCC5)n3)CN(C(=O)c3ccco3)CC4)CC2)cc1C the “% Inhibition” value was -9% and the Z score was 1.31.
With Cc1ccc(F)cc1NC(=O)CCc1c(C)nn(-c2ccc3nnc(C)n3n2)c1C the “% Inhibition” value was -13% and the Z score was 1.6.
CCCc1nc(N2Cc3cnn(CCO)c3C2)no1 was tested, and the “% Inhibition” value was 2% and the Z score was -0.3.
In the case of CCN(CC)C(=O)Cn1ccc2ccc(-c3nnc(C)o3)cc21, the “% Inhibition” value is reported as -2% and the Z score is reported as 0.19.
CCC(=O)N1c2ccc(S(=O)(=O)N3CCCCC3)cc2C[C@H]1C(=O)NCc1ccco1 was tested, and the “% Inhibition” value was -4% and the Z score was 0.54.
Cc1cc(C)n(CCN(C)Cc2cc(=O)n3ccsc3n2)n1 was tested, and the “% Inhibition” value was 2% and the Z score was -0.32.
Cc1c[nH]c(CNc2cc(C3CC3)ncn2)n1 was tested, and the “% Inhibition” value was 1% and the Z score was -0.22.
With COCCN1CC2(CCC1=O)CCN(C(=O)[C@@H]1CCc3ccccc31)CC2 the “% Inhibition” value was -23% and the Z score was 2.88.
COc1ccc(F)c(F)c1CN1C[C@@H]2NCCO[C@H]2C1 was tested, and the “% Inhibition” value was -10% and the Z score was 1.24.
With Cc1csc(NC(=O)c2cc(-c3ccccc3)on2)n1 the “% Inhibition” value was -6% and the Z score was 1.01.
For C=CC[C@]1(CO)CCCN(c2cc(C3CC3)ncn2)C1, the “% Inhibition” value was -16% and the Z score was 3.14.
In the case of O=C(c1cc(-c2ccco2)n[nH]1)N1CCC(Oc2nncs2)CC1, the “% Inhibition” value is reported as 20% and the Z score is reported as -2.49.
O=C(C1CC1c1ccccc1)N(c1ccc(F)cn1)C1CCOCC1 (stereo not drawn) was tested, and the “% Inhibition” value was 44% and the Z score was -6.09.
In the case of COc1ccc(CCNC(=O)c2cc(-c3cc(Cl)ccc3Cl)oc2C)cc1OC, the “% Inhibition” value is reported as -8% and the Z score is reported as 1.01.
With O=C(Nc1ccc(-n2cc[nH]c2=O)cc1)c1ccc2ccccc2n1 the “% Inhibition” value was -5% and the Z score was 0.45.
With CC[C@@H](C(=O)NC1CCN(C)CC1)N(c1cc(Cl)ccc1C)S(C)(=O)=O the “% Inhibition” value was -6% and the Z score was 1.12.
With O=C(c1n[nH]c2c1CCC2)N1CCC(n2cc(-c3ccsc3)nn2)CC1 the “% Inhibition” value was -26% and the Z score was 3.85.
COc1cccc(-c2nc(C)c(C(=O)Nc3nc(C(C)C)n[nH]3)s2)c1 was tested, and the “% Inhibition” value was 68% and the Z score was -7.28.
COc1cccc(Nc2ncnc3sc(C)c(S(=O)(=O)N4CCCCC4)c23)c1 was tested, and the “% Inhibition” value was 0% and the Z score was 0.06.
For Cc1cc2nc(C(=O)NCCc3c[nH]c4ccccc34)cc(C)n2n1, the “% Inhibition” value was -6% and the Z score was 1.11.
OC1(c2nc(Cc3csc(-c4ccccc4)n3)no2)CCCC1 was tested, and the “% Inhibition” value was -4% and the Z score was 0.38.
